Reference: PubChem BioAssay AID1030 (National Center for Advancing Translational Sciences (NCATS), 2008)
Among all 220,000 compounds or so, about 16,000 (7.3%) were called active. The inconclusive results got no clear call from the source; some entries with a clear call stand among them for comparison. Calls come from the whole dose curve; as a rule, active = well fitted inhibition curve with a large enough effect (not every such curve was filed as active); inconclusive = small, poorly fitted or top-dose-only effect, or another doubt; inactive = no such curve, though single readings can be large or run the other way. Potencies of inconclusive entries are left out as doubtful fits.

biological target: Aldehyde dehydrogenase 1A1 (Homo sapiens) (UniProt P00352); test: qHTS Assay for Inhibitors of Aldehyde Dehydrogenase 1 (ALDH1A1); conditions: Purified ALDH1A1, NADH fluorescence, propionaldehyde substrate; series mostly up to 75.3 µM
UniProt P00352, sequence (P00352 whole entry, looked up): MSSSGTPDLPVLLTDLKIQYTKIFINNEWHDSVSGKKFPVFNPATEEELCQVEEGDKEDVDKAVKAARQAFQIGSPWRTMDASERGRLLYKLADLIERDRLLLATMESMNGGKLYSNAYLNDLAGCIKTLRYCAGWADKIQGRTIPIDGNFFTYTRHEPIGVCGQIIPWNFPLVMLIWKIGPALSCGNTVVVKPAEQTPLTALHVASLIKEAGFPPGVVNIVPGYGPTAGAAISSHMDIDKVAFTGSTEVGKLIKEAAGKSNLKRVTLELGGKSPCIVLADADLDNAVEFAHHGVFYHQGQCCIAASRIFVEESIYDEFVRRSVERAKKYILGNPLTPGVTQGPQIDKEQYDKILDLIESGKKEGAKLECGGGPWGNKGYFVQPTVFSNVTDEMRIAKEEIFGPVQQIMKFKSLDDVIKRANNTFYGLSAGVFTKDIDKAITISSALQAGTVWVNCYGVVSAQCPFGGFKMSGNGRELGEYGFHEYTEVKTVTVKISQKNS
Potency is the fitted concentration of half-maximal effect; tags give direction and shape of the fitted curve.

With `O=S(=O)(NC1c2cccc3cccc(c23)C1Sc1ncccn1)c1ccc(Cl)cc1` (configuration not stated) as the compound, how does the Potency read?
Its Potency is inconclusive [inhibitor, single point].

For `CC(C(=O)NN=C(c1ccccc1)c1ccccc1)N1CCOCC1` (configuration not stated), which Potency is on record?
Its Potency is “inactive”.

For `CCN(CC)S(=O)(=O)c1ccc2c(c1)nc(CCC(=O)OCC(=O)N1CCc3ccccc31)n2C`, which Potency is on record?
Its Potency is inconclusive [inhibitor, single point].

Which Potency does the source give for `O=C(NCSc1ccnc(SCNC(=O)c2ccc(F)cc2)n1)c1ccc(F)cc1` here?
Its Potency is inconclusive [inhibitor, single point].

How did the Potency turn out when `CCCCOc1c(Br)cc(/C=C2\N=C(C)OC2=O)cc1OCC` was run?
Its Potency is inconclusive [inhibitor, single point].

How did the Potency turn out when `COC(=O)CN(c1cccc(F)c1)S(C)(=O)=O` was run?
Its Potency is “inactive”.

How did the Potency turn out when `CS(=O)(=O)N(CC(=O)Nc1ccccc1C(=O)N1CCCC1)c1cccc([N+](=O)[O-])c1` was run?
Its Potency is active: 15.8 µM.

For `CCOc1ccc2nc(SCC(=O)Nc3cccc(S(=O)(=O)NC4=NCCCCC4)c3)[nH]c2c1`, which Potency is on record?
The Potency was inconclusive [inhibitor, single point].

`C=CCn1c(SCC(=O)c2ccc(CNC(C)=O)o2)nc2ccccc2c1=O` was tested. Which Potency did it give?
The Potency was inconclusive [inhibitor, single point].

For `Cc1ccc(S(=O)(=O)N2CCCCC2)cc1NS(=O)(=O)c1cccc(C(=O)O)c1`, which Potency is on record?
Its Potency is inconclusive [inhibitor, single point].

For `Nc1cccc(C(F)(F)F)c1`, which Potency is on record?
The Potency was “inactive”.

Which Potency does the source give for `CN(C(=O)C1CCOC1)c1nnc(-c2cnccn2)s1` (configuration not stated) here?
The Potency was inconclusive [inhibitor, single point].

`Cc1ccc(NC(=S)NCC2CCCO2)cc1C` (configuration not stated) was tested. Which Potency did it give?
Its Potency is inconclusive [inhibitor, single point].

How did the Potency turn out when `Cn1cccc1C(=O)N1CCC[C@@]2(CCN(C(=O)Nc3cccc(C#N)c3)C2)C1` was run?
Its Potency is “inactive”.

With `O=C(CSc1nnnn1-c1cccc2c1CCCC2)N1CCOCC1` as the compound, how does the Potency read?
The Potency was active: 7.94 µM.

For `COc1ccc(C2C(C#N)=C(/N=C/N3CCN(C)CC3)OC3=C2C(=O)CC(C)(C)C3)cc1` (configuration not stated), which Potency is on record?
The Potency was inconclusive [inhibitor, single point].

How did the Potency turn out when `Cc1ccc(S(=O)(=O)Oc2ccc(/C=N/NC(=O)c3c(Cl)cnn3C)cc2)cc1` was run?
The Potency was inconclusive [inhibitor, full curve].

How did the Potency turn out when `CCOC(=O)CSc1ccc(-c2nc3ccccc3[nH]2)cn1` was run?
Its Potency is inconclusive [inhibitor, single point].

With `CN(Cc1ccccc1)c1nc2c(c(=O)[nH]c(=O)n2C)n1CCSc1nc2ccccc2[nH]1` as the compound, how does the Potency read?
The Potency was inconclusive [inhibitor, single point].

`COC(=O)c1ccc(NC(=O)CSCC(=O)OCC(=O)c2ccc(Br)cc2)cc1` was tested. Which Potency did it give?
Its Potency is active: 22.4 µM.

Which Potency does the source give for `CC(C)(C)c1ccc(C(=O)NCc2cccnc2)cc1` here?
The Potency was inconclusive [inhibitor, partial curve].

For `Cn1c(C(=O)N2CCCC(C(=O)NCCc3ccccc3)C2)cc2sccc21` (configuration not stated), which Potency is on record?
The Potency was active: 11.2 µM.

With `COCCCn1c(-c2ccco2)nc2ccccc2c1=O` as the compound, how does the Potency read?
Its Potency is active: 22.4 µM.

With `Cc1nn(C)cc1CNC(=O)c1ccc(Br)o1` as the compound, how does the Potency read?
The Potency was inconclusive [inhibitor, single point].

Which Potency does the source give for `CCc1ccc(C(=O)COC(=O)c2cccs2)cc1` here?
Its Potency is inconclusive [inhibitor, single point].

With `Nc1nc(C(=O)N2CCOCC2)nn1S(=O)(=O)c1ccc(Cl)cc1` as the compound, how does the Potency read?
The Potency was “inactive”.

Which Potency does the source give for `O=C(OC1CCOC1=O)c1ccc(-c2nc3ccccc3s2)s1` (configuration not stated) here?
Its Potency is inconclusive [inhibitor, partial curve].

With `COc1ccccc1OCc1nc(C#N)c(NCc2ccco2)o1` as the compound, how does the Potency read?
Its Potency is “inactive”.

Which Potency does the source give for `COc1ccc(Oc2ncc3ncc(=O)n(-c4ccc(OC)cc4)c3n2)cc1` here?
The Potency was inconclusive [inhibitor, partial curve].

For `Cn1cc(CCC(=O)N2CCCC(C(=O)c3cccc4ccccc34)C2)cn1` (configuration not stated), which Potency is on record?
Its Potency is inconclusive [inhibitor, single point].

Which Potency does the source give for `N#CC1=C(N)N=C(SCc2ccccc2)C(C(N)=O)C12CCCCC2` (configuration not stated) here?
The Potency was inconclusive [inhibitor, single point].

For `S=C1NC=NC2N=CNC12` (configuration not stated), which Potency is on record?
The Potency was active: 2.24 µM.

`CCCc1[nH]nc2c1C1(CCOC1C)C(C#N)=C(N)O2` (configuration not stated) was tested. Which Potency did it give?
Its Potency is inconclusive [inhibitor, single point].

How did the Potency turn out when `CCOc1ccc2ncc(S(=O)(=O)c3ccccc3)c(N3CCC4(CC3)OCCO4)c2c1` was run?
The Potency was inconclusive [inhibitor, partial curve].

Which Potency does the source give for `Clc1ccc2ncc(-c3nnnn3-c3ccccc3)c(-c3ccccc3)c2c1` here?
The Potency was active: 11.2 µM.

`OCCC1CN(Cc2cccc(-n3cccn3)c2)CCN1Cc1ccccc1` (configuration not stated) was tested. Which Potency did it give?
The Potency was “inactive”.

How did the Potency turn out when `CN(C)C(CNC(=O)c1ccc(S(=O)(=O)NCc2ccco2)cc1)c1ccccc1` (configuration not stated) was run?
The Potency was “inactive”.

With `O=C(Nc1ccccc1)c1nnsc1S(=O)c1ccc(Cl)cc1` (configuration not stated) as the compound, how does the Potency read?
Its Potency is active: 1.78 µM.

Which Potency does the source give for `CCOc1ccc(NC(=O)CC2Nc3ccccc3NC2=O)cc1` (configuration not stated) here?
The Potency was “inactive”.

How did the Potency turn out when `CCN1CCCc2cc(CN(CCN3CCOCC3)C(=S)Nc3ccc(C)cc3)ccc21` was run?
Its Potency is active: 6.31 µM.

For `O=C(CCC(=O)c1cccs1)NCc1cccnc1`, which Potency is on record?
The Potency was “inactive”.

`COc1ccc(-c2nc(CS(=O)(=O)CC(=O)Nc3ccc(Cl)cc3)c(C)o2)cc1` was tested. Which Potency did it give?
Its Potency is inconclusive [inhibitor, partial curve].

For `CC1CCCN(C(=S)Nc2ccc3nc4n(c(=O)c3c2)CCCCC4)C1` (configuration not stated), which Potency is on record?
Its Potency is inconclusive [inhibitor, partial curve].

`COC(=O)/C=C1\SC(=NC(=O)c2cccc(Cl)c2)NC1=O` was tested. Which Potency did it give?
The Potency was inconclusive [inhibitor, single point].

`CCC(=O)Oc1ccc2c(c1)OC1(OC(C)=O)OC(C)CC1=C2C` (configuration not stated) was tested. Which Potency did it give?
Its Potency is inconclusive [inhibitor, partial curve].

`COC(=O)CSc1ccc(-c2nc3ccc(C)cc3[nH]2)cn1` was tested. Which Potency did it give?
The Potency was inconclusive [inhibitor, partial curve].

How did the Potency turn out when `N#Cc1c(NCCCO)nc(-c2ccco2)c2c1CCCC2` was run?
The Potency was inconclusive [inhibitor, partial curve].

How did the Potency turn out when `CC1(C)C(C(=O)O)N2C(=O)CC2S1(=O)=O` (configuration not stated) was run?
Its Potency is “inactive”.

`Cc1nn(-c2ccccc2)c(N2CCCC2)c1/C=N/NC(=O)c1cc2ccccc2cc1O` was tested. Which Potency did it give?
Its Potency is “inactive”.

With `Cc1ccccc1CSCCNC(=O)CSCc1ccc([N+](=O)[O-])cc1` as the compound, how does the Potency read?
The Potency was inconclusive [inhibitor, single point].

`CCc1ccc(NC(=S)Nc2cc(C(=O)O)ccc2N2CC3CC(C2)c2cccc(=O)n2C3)cc1` (configuration not stated) was tested. Which Potency did it give?
Its Potency is active: 17.8 µM.

With `C/C(=N\NC(=O)c1c(C)nc2ccccn12)c1ccco1` as the compound, how does the Potency read?
Its Potency is “inactive”.

For `COc1ccc(Oc2cccc(Cl)c2CNC(=O)c2ccccc2C(=O)O)cc1`, which Potency is on record?
Its Potency is “inactive”.

With `CCCCOC(=O)C1=C(C)NC2(O)c3ccccc3C(=O)C12O` (configuration not stated) as the compound, how does the Potency read?
The Potency was active: 8.91 µM.

Which Potency does the source give for `O=c1c(-c2ccccc2)nc2cncnc2n1Cc1ccc(F)cc1` here?
Its Potency is inconclusive [inhibitor, single point].

How did the Potency turn out when `CCN(CC)CCn1c(SCC(=O)NCCC2=CCCCC2)nc2c(sc3ccccc32)c1=O` was run?
The Potency was inconclusive [inhibitor, partial curve].

For `C[N+]1(C)CCC[C@H]1C(=O)[O-]`, which Potency is on record?
Its Potency is “inactive”.

For `CC(=O)OCC(=O)NCC(=O)c1c[nH]c2ccccc12`, which Potency is on record?
The Potency was “inactive”.

How did the Potency turn out when `Oc1ccc(N=Cc2cc(Br)c(N3CCOCC3)o2)cc1` was run?
Its Potency is active: 8.91 µM.

How did the Potency turn out when `OC[C@H]1O[C@@H]2O[C@H]3[C@H](O)[C@@H](O)[C@@H](O[C@H]4[C@H](O)[C@@H](O)[C@@H](O[C@H]5[C@H](O)[C@@H](O)[C@@H](O[C@H]6[C@H](O)[C@@H](O)[C@@H](O[C@H]7[C@H](O)[C@@H](O)[C@@H](O[C@H]8[C@H](O)[C@@H](O)[C@@H](O[C@H]1[C@H](O)[C@H]2O)O[C@@H]8CO)O[C@@H]7CO)O[C@@H]6CO)O[C@@H]5CO)O[C@@H]4CO)O[C@@H]3CO` was run?
The Potency was inconclusive [inhibitor, single point].

`Cn1c(=O)c2c(ncn2CC(=O)N/N=C/c2c[nH]c3ccccc23)n(C)c1=O` was tested. Which Potency did it give?
The Potency was “inactive”.

How did the Potency turn out when `COc1ccc(C(CC(=O)O)NC(=O)c2cc3cc(Br)ccc3oc2=O)cc1OC` (configuration not stated) was run?
Its Potency is inconclusive [inhibitor, single point].

Which Potency does the source give for `C/C(=N/NS(=O)(=O)c1ccc(Cl)cc1)c1cccc(NC(=O)c2ccc(Cl)cc2Cl)c1` here?
Its Potency is inconclusive [inhibitor, single point].

How did the Potency turn out when `COc1ccc(C(=O)Oc2cccc3cccnc23)cc1[N+](=O)[O-]` was run?
The Potency was inconclusive [inhibitor, single point].

For `Cc1ccc(-c2ccc(SCC(=O)N3CCCc4ccccc43)nn2)cc1`, which Potency is on record?
Its Potency is inconclusive [inhibitor, single point].

For `Cc1ccccc1NC(=O)c1cccc2nc3ccccc3nc12`, which Potency is on record?
The Potency was “inactive”.

For `CC(=O)c1cccc(S(=O)(=O)NCC(c2ccco2)N2CCCCC2)c1` (configuration not stated), which Potency is on record?
The Potency was active: 11.2 µM.

Which Potency does the source give for `COc1cc(S(=O)(=O)NCCCN2CCOCC2)ccc1-n1cnnn1` here?
The Potency was inconclusive [inhibitor, single point].

For `O=C(CSC(=S)N1CCCCC1)c1c(F)cccc1F`, which Potency is on record?
The Potency was active: 12.6 µM.

How did the Potency turn out when `Cc1cccc(C)c1NC(=O)C1c2cccc[n+]2CC(=O)N1Cc1ccc2c(c1)OCO2` (configuration not stated) was run?
Its Potency is inconclusive [inhibitor, single point].

Which Potency does the source give for `CC1=C(C(=O)Nc2ccccc2)C(c2cccnc2)n2ncnc2N1` (configuration not stated) here?
Its Potency is “inactive”.

With `CC1CCC(C(C)[C@H]2CCC3C4CC(=O)C5C[C@@H](O)CC[C@]5(C)C4CC[C@@]32C)=NC1` (some centres not stated) as the compound, how does the Potency read?
Its Potency is inconclusive [inhibitor, single point].
